Results reported in PMC9925316.
No constants are given. Whether binding was seen depends on the method and setting. In cells and extracts the contact can be indirect. Some binding calls cover weakened binding; strength is not graded here.

Chains of the proteins cited; added tags and fusions are not shown. Lines headed by an entry give the natural chain unless they say otherwise; changes in a name come on top.
UniProt P15559: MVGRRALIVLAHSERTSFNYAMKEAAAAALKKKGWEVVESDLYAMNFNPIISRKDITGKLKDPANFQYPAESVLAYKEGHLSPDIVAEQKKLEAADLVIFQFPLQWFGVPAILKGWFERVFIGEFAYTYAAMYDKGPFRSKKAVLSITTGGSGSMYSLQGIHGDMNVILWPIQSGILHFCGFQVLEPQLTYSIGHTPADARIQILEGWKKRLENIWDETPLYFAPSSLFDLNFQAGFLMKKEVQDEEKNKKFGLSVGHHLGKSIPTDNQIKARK
UniProt P01100: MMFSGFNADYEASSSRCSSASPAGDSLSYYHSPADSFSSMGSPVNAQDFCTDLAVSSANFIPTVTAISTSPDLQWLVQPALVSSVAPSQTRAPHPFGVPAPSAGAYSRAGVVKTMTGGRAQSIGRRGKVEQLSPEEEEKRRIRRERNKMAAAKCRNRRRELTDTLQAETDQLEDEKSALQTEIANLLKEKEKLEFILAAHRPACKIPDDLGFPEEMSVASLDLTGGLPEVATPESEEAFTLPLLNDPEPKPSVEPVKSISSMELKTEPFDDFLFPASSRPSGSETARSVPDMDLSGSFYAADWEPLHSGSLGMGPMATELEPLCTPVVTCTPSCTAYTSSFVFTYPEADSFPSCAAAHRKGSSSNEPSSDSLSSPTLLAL
UniProt P05412: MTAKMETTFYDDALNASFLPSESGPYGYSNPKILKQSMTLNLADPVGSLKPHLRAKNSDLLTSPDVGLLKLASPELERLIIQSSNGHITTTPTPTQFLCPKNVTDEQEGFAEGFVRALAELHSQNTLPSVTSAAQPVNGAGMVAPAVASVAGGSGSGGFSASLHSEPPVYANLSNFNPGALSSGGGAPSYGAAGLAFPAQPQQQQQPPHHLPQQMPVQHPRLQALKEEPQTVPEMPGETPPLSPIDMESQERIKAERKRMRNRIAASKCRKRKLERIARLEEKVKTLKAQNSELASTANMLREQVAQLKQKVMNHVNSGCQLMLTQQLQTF

Legend:
[1] = target: NQO1-myc-His6 (NAD(P)H:quinone oxidoreductase 1) (human) (UniProt P15559); assay: pull-down; His6-tagged NQO1 affinity-purified and conjugated to Ni-NTA resin; resin incubated 2 h at 4°C with 1 mg total protein of cells expressing EGFP-c-Fos deletion constructs; immunoblot with anti-NQO1 and anti-GFP; only the target purified
[2] = target: c-Fos, endogenous (human (endogenous in RKO)) (UniProt P01100); assay: co-IP; endogenous proteins, whole-cell extracts of RKO/pshCont cells; lysis in ice-cold RIPA/PBS (33% v/v); IP with anti-NQO1, anti-c-Fos or IgG; immunoblot with anti-NQO1 and anti-c-Fos
[3] = target: c-Jun, endogenous (human (endogenous in a human cancer cell line)) (UniProt P05412); assay: co-IP; endogenous co-IP with rabbit monoclonal anti-c-JUN (Figure S14); lysis in ice-cold RIPA/PBS (33% v/v); cells not given
[4] = target: EGFP-c-Fos fusion protein (human) (UniProt P01100); assay: co-IP; MDA-MB-231 cells transfected with pNQO1-myc-His6 and pEGFP-c-Fos; lysis in ice-cold RIPA/PBS (33% v/v); IP with anti-His6, anti-GFP or normal IgG overnight at 4°C, Protein G-magnetic beads; immunoblot with anti-NQO1 and anti-c-Fos

Substance | binding [1] | other results
EGFP-c-Fos deletion mutant, residues 161-198 (from UniProt P01100 161-198) (domain or fragment) | no binding | –
NQO1, endogenous (from UniProt P15559 1-274) (enzyme) | – | binding [2]: binds; binding [3]: no binding
NQO1-myc-His6 (NAD(P)H:quinone oxidoreductase 1) (from UniProt P15559 1-274) (enzyme) | – | binding [4]: binds

Second part, led by results:

binding [1] | Substance | other results
no binding | EGFP-c-Fos deletion mutant, residues 1-140 (from UniProt P01100 1-140) (domain or fragment) | –
binds | EGFP-c-Fos deletion mutant, residues 137-164 (DNA-binding domain) (from UniProt P01100 137-164) (domain or fragment) | –
no binding | EGFP-c-Fos deletion mutant, residues 196-380 (from UniProt P01100 196-380) (domain or fragment) | –
